Results on 172 sequences are retold here after paper PMC10668032.

Some of the results follow. At the low end of the ranking the order means little.

This assay addresses SIX1 homeodomain (reference allele) (UniProt Q15475). Nature of the assay: universal protein binding microarray. As to conditions: Universal all-10-mer PBM (8x60K, AMADID 030236), 300 nM GST-tagged protein, Alexa Fluor 488 anti-GST; buffer, salt, pH and temperature not stated; high values mean tight binding; most listed sequences are background and not binding sites; double strand, one strand shown.
Turning to ACTACTCA, the binding signal was -0.0909 E-score.
Regarding ACTTCAAG, the binding signal was -0.047 E-score.
As to GTGAATCA, the binding signal is -0.193 E-score.
For AGATCCCA, the binding signal worked out at 0.213 E-score.
Take AAAGATTC: the binding signal is -0.0648 E-score.
Turning to GAAACAGA, the binding signal was -0.27 E-score.
CCCGTAAC: the binding signal is -0.151 E-score.
CGTTTTTC: the binding signal was -0.158 E-score.
Consider ACATGAGA, for which the binding signal was 0.183 E-score.
In the case of ACTGATTC, the binding signal is -0.0918 E-score.
Regarding ACATGAAG, the binding signal was -0.181 E-score.
Take AATATGTC: the binding signal is 0.0058 E-score.
On to CAAAGACC, for which the binding signal was -0.182 E-score.
Consider AAATTGTG, for which the binding signal was -0.141 E-score.
As for GCCGTCAA, the binding signal was -0.242 E-score.
Under AAGCTTGG stands -0.249 E-score; under GCATTAGA, -0.0366 E-score; under CGTCCCAG, -0.0861 E-score.
Consider CACAGCGC, for which the binding signal was -0.148 E-score.
On to AATCCCTC, for which the binding signal was found to be 0.203 E-score.
Under AGCGTTTA stands -0.3 E-score; under GCCTAGCA, -0.134 E-score.
As for GACTTCCC, the binding signal was -0.152 E-score.
AAGTATAT: the binding signal was 0.184 E-score.
In the case of ATATGCAG, the binding signal is 0.222 E-score.
As to AGACCCCT, the binding signal stood at 0.102 E-score.
CCAGGTTA: the binding signal is -0.0037 E-score.
As for ACTTCCGC, the figure is -0.164 E-score; as for TCTCCGCA, -0.0758 E-score.
Take GGAAGGAC: the binding signal is -0.292 E-score.
Regarding AACGACGC, the binding signal was -0.241 E-score.
As to GCAAGCGA, the binding signal was -0.0703 E-score.
With ACGGTTCT, the binding signal was -0.149 E-score.
On to ATCATGAC, for which the binding signal stood at 0.197 E-score.
Consider CCAGAGAC, for which the binding signal is 0.00835 E-score.
AGGGCTGC: the binding signal was -0.137 E-score.
On to CCGCAATC, for which the binding signal stood at 0.0789 E-score.
As for ACTCTTTC, the binding signal was -0.167 E-score.
Regarding ATATTTTG, the binding signal was 0.0076 E-score.
ATCATAGG: the binding signal was found to be 0.205 E-score.
For the sequence ACAAGTTC, the binding signal is -0.0948 E-score.
Take ACCAAGTC: the binding signal is -0.179 E-score.
With ATGCTAAA, the binding signal is -0.0576 E-score.
TGACTGCA: the binding signal was -0.17 E-score.
As for GGAGTAGA, the binding signal is 0.253 E-score.
Take GCTAGAGA: the binding signal is 0.0858 E-score.
Turning to AGTCGATA, the binding signal is 0.257 E-score.
As to TATAAAGA, the binding signal was -0.00647 E-score.
With AGATCTAG, the binding signal is 0.141 E-score.
On to ACAATCAC, for which the binding signal is -0.13 E-score.
With ATAAGCTG, the binding signal is -0.105 E-score.
On to ACAAGTAC, for which the binding signal was -0.0929 E-score.
For the sequence TCAGAACA, the binding signal was determined as 0.0594 E-score.
With ACCATCTA, the binding signal is 0.159 E-score.
GCAGAGTA: the binding signal was 0.0448 E-score.
Consider CGGTAATA, for which the binding signal turned out to be 0.23 E-score.
Under AACAGGCC stands -0.319 E-score.
With GATACATA, the binding signal came to 0.398 E-score.
As for GCCAGGCA, the figure is -0.12 E-score.
Under CCAACTCA stands -0.193 E-score; under CTCTGTAA, -0.18 E-score.
For the sequence AGCGATCG, the binding signal worked out at 0.211 E-score.
Regarding AGGTAAGA, the binding signal was 0.0217 E-score.
For the sequence GCCCGCAA, the binding signal is -0.123 E-score.
For CAGCTCGG, the binding signal was -0.0111 E-score.
For AGCCTGGC, the binding signal was -0.189 E-score.
Consider AAATGAAA, for which the binding signal was -0.0036 E-score.
For ACCAGCGT, the binding signal is -0.037 E-score.
As for AAGCTGTC, the binding signal was -0.213 E-score.
For the sequence AATATTAT, the binding signal is 0.11 E-score.
Consider CCTCTTAC, for which the binding signal was -0.125 E-score.
As to CTGTACGA, the binding signal is -0.0788 E-score.
Regarding CTCATCCA, the binding signal turned out to be 0.129 E-score.
Under ACTAGCTA stands -0.0268 E-score; under GCCCCAGC, -0.0188 E-score; under CTCGCCGC, -0.0499 E-score.
As for AACCTGCG, the figure is -0.119 E-score; as for TACAACCA, -0.0112 E-score; as for GCCAAGAA, -0.0857 E-score.
Under GCGCTTCC stands -0.224 E-score.
With AGACTGCT, the binding signal was -0.265 E-score.
CATCCGGG: the binding signal is 0.166 E-score.
As for CATATCCC, the figure is 0.352 E-score.
With GCCGTAAA, the binding signal is -0.133 E-score.
As to GGCTGGCA, the binding signal is -0.244 E-score.
Turning to CCGGCGTC, the binding signal was 0.0305 E-score.
On to CATTCAGA, for which the binding signal was -0.0954 E-score.
As for ATAACCAT, the figure is 0.134 E-score; as for CCAGAACC, -0.0578 E-score.
Consider ATCTGAAC, for which the binding signal turned out to be 0.179 E-score.
Turning to AACGTAAA, the binding signal was -0.146 E-score.
For the sequence GTGTCCCA, the binding signal turned out to be 0.204 E-score.
In the case of AACGTAAG, the binding signal was -0.287 E-score.
Regarding GGGCTTGA, the binding signal was -0.183 E-score.
Under GGACTTTA stands -0.126 E-score.
As for ACGTAAAG, the figure is -0.112 E-score; as for TCAGAAGA, -0.196 E-score.
ACTGGTTG: the binding signal was -0.0512 E-score.
Regarding GCGAAAAA, the binding signal was -0.102 E-score.
Under ACTGCTTG stands -0.0467 E-score; under CGTCGGCA, -0.105 E-score.
Under AATGTGCC stands -0.179 E-score; under ATAGGCGG, 0.197 E-score; under GGTGCTTA, -0.0807 E-score.
As to ACAAGTAG, the binding signal came to 0.00907 E-score.
In the case of ACGCCGGC, the binding signal turned out to be 0.04 E-score.
On to CATTTCCG, for which the binding signal is -0.206 E-score.
As for GCCGAGGA, the figure is 0.149 E-score.
On to ACATATGT, for which the binding signal is -0.19 E-score.
Turning to TCGTAAAA, the binding signal was -0.00307 E-score.
Take AGACGCAG: the binding signal stood at 0.143 E-score.
In the case of TGACTAAA, the binding signal is -0.33 E-score.
Turning to CTTTCGCC, the binding signal was -0.115 E-score.
As for AGCTCAGC, the figure is -0.23 E-score; as for GAGGTGAC, 0.0853 E-score.
Take CGGGTCGC: the binding signal was 0.036 E-score.
Take GGAGTCAC: the binding signal was -0.0259 E-score.
In the case of ATACAATC, the binding signal came to 0.197 E-score.
Take ATGACGAG: the binding signal was -0.0365 E-score.
Take ATTAGTCA: the binding signal was 0.0585 E-score.
For the sequence CATTCCGC, the binding signal was -0.222 E-score.
Regarding CCATGTCA, the binding signal was -0.0101 E-score.
As for GTTACCCA, the binding signal was -0.0711 E-score.
Under ACGACGTA stands 0.0592 E-score; under CTTCACTC, -0.0912 E-score.
Turning to CCATTGAG, the binding signal is -0.0934 E-score.
In the case of CGAGCCTC, the binding signal was 0.0722 E-score.
As to AATAGGGT, the binding signal came out at 0.105 E-score.
For ACACATTA, the binding signal was -0.13 E-score.
Take CCCGCATC: the binding signal came out at 0.106 E-score.
As to AGTTTGTC, the binding signal was -0.248 E-score.
On to TACTCAAA, for which the binding signal is 0.0473 E-score.
As to AAACTACA, the binding signal was determined as 0.0584 E-score.
For CGAGACAA, the binding signal is -0.172 E-score.
Take CAAATTGG: the binding signal was -0.0615 E-score.
For AATTGTAT, the binding signal worked out at 0.162 E-score.
As for CAGTTGCC, the binding signal is -0.128 E-score.
As to GATCCATC, the binding signal came out at 0.364 E-score.
Regarding GCCACAAC, the binding signal is -0.208 E-score.
Turning to CAAGAATC, the binding signal was determined as 0.0443 E-score.
In the case of ATGTTGGG, the binding signal was -0.122 E-score.
Consider CATGATCG, for which the binding signal was determined as 0.144 E-score.
With CAAAACTC, the binding signal was -0.0727 E-score.
Consider ATGTGGAG, for which the binding signal was -0.126 E-score.
With AACCGGGT, the binding signal worked out at 0.119 E-score.
With AGCCCGCC, the binding signal is -0.0693 E-score.
As for AACCTAAC, the figure is -0.201 E-score.
As to AAATCGAT, the binding signal was determined as 0.114 E-score.
For the sequence GTAGGTAA, the binding signal is -0.12 E-score.
Consider AGCGCCGG, for which the binding signal was -0.0618 E-score.
Turning to GTCGACGA, the binding signal was -0.161 E-score.
AGCAATAG: the binding signal amounted to 0.05 E-score.
ACCCAGAG: the binding signal came to 0.0386 E-score.
With CCGTCTAA, the binding signal is 0.172 E-score.
Consider ACGTGCTA, for which the binding signal is -0.0495 E-score.
On to TACCGCGA, for which the binding signal turned out to be 0.25 E-score.
In the case of CCGATTGC, the binding signal was 0.0553 E-score.
CAATATCC: the binding signal is 0.37 E-score.
With CGTGTGAC, the binding signal is -0.041 E-score.
AGAGCGAC: the binding signal is -0.269 E-score.
Turning to AGCGTGGC, the binding signal is -0.343 E-score.
As for GACATATC, the binding signal came out at 0.386 E-score.
Under ACCGTCCG stands -0.222 E-score; under AATTCCGT, -0.12 E-score.
As to CATCGATG, the binding signal was 0.0867 E-score.
As for CTCGGCCC, the figure is -0.134 E-score.
For GAACGGGC, the binding signal is -0.21 E-score.
In the case of AGAAATGA, the binding signal is -0.2 E-score.
Turning to AAATAAAC, the binding signal is -0.158 E-score.
Take TAAAAAAA: the binding signal was -0.287 E-score.
On to AAGAGGGA, for which the binding signal is -0.0679 E-score.
As to AGTGAGCC, the binding signal was 0.225 E-score.
